# Assay results as given in article PMC4336329 (PLoS ONE, 2015).
# The whole screen tested about 310,000 compounds, of which about 2,200 (0.71%) showed an effect of 50% or more. Effects have a minus sign here. Some of the results follow.
# Molecular target: human ether-à-go-go-related gene (hERG) potassium channel (human, UniProt Q12809)
# Experiment: primary screen, population patch clamp on CHO cells stably expressing hERG
# Sequence of human ether-à-go-go-related gene (hERG) potassium channel (Q12809 whole entry, looked up): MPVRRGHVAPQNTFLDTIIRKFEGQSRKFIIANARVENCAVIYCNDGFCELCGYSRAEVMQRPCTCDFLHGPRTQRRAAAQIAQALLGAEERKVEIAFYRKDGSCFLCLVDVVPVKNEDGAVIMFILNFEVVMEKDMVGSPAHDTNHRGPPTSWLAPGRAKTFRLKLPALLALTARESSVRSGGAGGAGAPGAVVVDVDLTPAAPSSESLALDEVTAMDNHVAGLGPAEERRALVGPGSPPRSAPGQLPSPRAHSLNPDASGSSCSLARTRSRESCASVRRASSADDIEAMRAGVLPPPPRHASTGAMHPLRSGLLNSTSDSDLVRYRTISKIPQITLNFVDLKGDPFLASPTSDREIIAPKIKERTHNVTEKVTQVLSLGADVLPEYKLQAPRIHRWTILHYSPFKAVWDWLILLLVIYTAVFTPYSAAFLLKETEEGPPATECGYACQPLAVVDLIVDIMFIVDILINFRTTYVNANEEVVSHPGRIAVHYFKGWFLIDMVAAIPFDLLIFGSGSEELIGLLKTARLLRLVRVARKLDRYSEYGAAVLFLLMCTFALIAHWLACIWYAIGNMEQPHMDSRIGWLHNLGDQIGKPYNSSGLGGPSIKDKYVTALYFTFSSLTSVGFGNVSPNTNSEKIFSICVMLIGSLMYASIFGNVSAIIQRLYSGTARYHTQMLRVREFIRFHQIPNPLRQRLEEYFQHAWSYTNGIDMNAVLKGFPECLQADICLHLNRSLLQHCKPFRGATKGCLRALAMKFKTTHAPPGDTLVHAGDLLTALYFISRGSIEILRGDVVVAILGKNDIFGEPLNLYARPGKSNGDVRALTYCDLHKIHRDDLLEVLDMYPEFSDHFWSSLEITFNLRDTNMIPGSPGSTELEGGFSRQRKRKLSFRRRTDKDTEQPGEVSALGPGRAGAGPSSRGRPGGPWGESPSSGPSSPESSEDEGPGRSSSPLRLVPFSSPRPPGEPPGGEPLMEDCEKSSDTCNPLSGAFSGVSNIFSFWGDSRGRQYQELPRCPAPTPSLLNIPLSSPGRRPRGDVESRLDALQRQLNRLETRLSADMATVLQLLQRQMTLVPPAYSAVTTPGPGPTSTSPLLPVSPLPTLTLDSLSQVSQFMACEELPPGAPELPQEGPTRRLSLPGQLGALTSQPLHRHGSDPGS
row,SMILES,"hERG current change (%, negative = inhibition) at 1uM [%]"
1,COc1ccc(Br)cc1C(=O)N/N=C/c1ccc2c(c1)n(C)c(=O)n2C,11.8
2,CCOC(=O)c1sc(NC(=O)COC(=O)CNC(=O)c2ccco2)c(C(=O)OCC)c1C,17
3,COc1ccc(CC(=O)Nc2ccc(S(=O)(=O)Nc3cc(OC)nc(OC)n3)cc2)cc1,11.6
4,O=C(CCNC(=O)C1CCN(S(=O)(=O)c2ccc(F)cc2)CC1)NCc1ccc(F)cc1,8.89
5,COC(=O)CSc1nnc(SCc2ccc(OC)cc2)s1,12.6
6,COc1cc(/C=C/C(=O)c2c(O)cc(C)oc2=O)cc(OC)c1O,18.8
7,CCSc1nnc(NC(=O)NC(CC)(C(F)(F)F)C(F)(F)F)s1,15.4
8,Cc1csc(SC(C)C(=O)NCC2CCCO2)n1 (centres unmarked),-4.59
9,CC(C)C[C@H](NC(=O)NCCC1=CCCCC1)C(=O)O,-1.27
10,O=C(Nc1cc(Cl)ccc1O)C1CC(c2c(F)cccc2Cl)=NO1 (centres unmarked),16.6
11,Cn1c2c(c(=O)n(C)c1=O)C(c1ccccc1OC(F)F)C1=C(CCCC1=O)N2 (centres unmarked),2
12,CCN(CC)CCOC(=O)c1ccc(NC(=O)c2ccc(Cl)c(S(=O)(=O)N3CCCCCC3)c2)cc1.Cl,13.5
13,COc1ccc2[nH]c(=O)c(CN(C(=O)NC3CCCCC3)C3CCCC3)cc2c1,-6.77
14,CCn1nc(C(=O)NNC(=O)c2ccccc2)c2ccccc2c1=O,6.09
15,O=C(COc1ccc2ccccc2c1)NCC(=O)N/N=C/c1ccco1,-4.96
16,COc1ccc(/C=N/N=C2/NC(=O)C(CC(=O)O)S2)cc1OS(=O)(=O)c1ccccc1 (centres unmarked),12
17,O=c1c2ccccc2nc(-c2ccccc2)n1Cc1ccco1,5.8
18,O=C(NCc1ccc2c(c1)OCO2)c1nn2cccnc2c1Cl,1.79
19,Cc1ccc(C(=O)Nc2ccc(N3CCOCC3)c3nonc23)cc1[N+](=O)[O-],5.68
20,O=C(CSc1n[nH]c(-c2ccccc2)n1)Nc1ncc(Br)cc1Br,5.13
21,Cc1cc(C(=O)N/N=C/c2cc(Br)cc(Br)c2OC(=O)c2cccc(F)c2)n[nH]1,13.3
22,CCOn1c(=O)c(-c2cc3ccccc3o2)[n+]([O-])c2ccccc21,11.2
23,CCc1nn2c(=O)c(S(=O)(=O)Nc3ccccc3)c(C)nc2s1,10.3

row,SMILES,"hERG current change (%, negative = inhibition) at 1uM [%]"
1,Clc1nnc(Cl)c2c1ncn2Cc1ccccc1,14.6
2,CCN(C(=O)CSc1nnc(Cn2nnc3ccccc32)o1)c1nc(-c2ccccc2)cs1,2.49
3,CC1OC(Nc2ccc(N=Nc3ccccc3)cc2)C(O)C(O)C1O (centres unmarked),13.4
4,CCC1CCCCN1C(=O)CNCC1CCCO1.Cl (centres unmarked),7.5
5,OCc1ccccc1N=Cc1cccnc1,8.66
6,COc1ccc(/C=C2\CCc3c2nc2ccccc2c3C(=O)O)cc1OC,0.475
7,Cc1ccc(N/C(=C\C(=O)c2ccccc2)C(=O)O)cc1,-6.7
8,Cc1nn(CCOc2ccccc2)c(=O)n1-c1ccc(Cl)cc1,5.93
9,Cc1ccccc1C(=O)NC(=S)NCCN1CCOCC1,9.75
10,CCc1nnc(NC(=O)CSc2nnc(-c3ccncc3)n2C)s1,7.38
11,CC1=C(C(=O)OCc2ccccc2)C(c2ccc(C#N)cc2)NC(=O)N1CCCC(=O)O (centres unmarked),7.56
12,CC(=O)c1c[nH]c(C(=O)Nc2ccc(N3CCCCCC3)cc2)c1,-3.54
13,CCOC(=O)c1cnc(SCC(=O)Nc2nc(C)c(C)s2)nc1N,-15.6
14,COC(=O)C1=C(C)N(C)C(=O)NC1c1cc2c(cc1Br)OCO2 (centres unmarked),11.3
15,COc1ccc(C2(C(=O)NCC3CCCO3)CCOCC2)cc1 (centres unmarked),5.88
16,CCc1ccc(NC(=O)CSc2nnc(CNC(=O)c3ccco3)o2)cc1,9.26
17,O=C1COc2ccc(NC(=O)c3ccccc3C(=O)O)cc2N1,12.6
18,O=C(Cc1ccc([N+](=O)[O-])cc1)OCc1ccc([N+](=O)[O-])cc1,12.5
19,CCOc1ccc(N2C(=O)CC(n3nc(C)cc3C)C2=O)cc1 (centres unmarked),3.53
20,C/C(=N\Nc1nncc2ccccc12)c1ccc(OCC(=O)N(C)C)cc1,12.7
21,O=C(CSCc1ccccc1Cl)N1CCN(c2ccccn2)CC1,7
22,Cc1nnsc1S(=O)c1ccc(Cl)cc1 (centres unmarked),13.3
23,Cc1c(C(=O)N2CCCCC2)sc(NC(=O)C(C)C)c1C#N,5.08

row,SMILES,"hERG current change (%, negative = inhibition) at 1uM [%]"
1,COc1cc(CC(=O)Nc2ccc(S(=O)(=O)NC3=NCCCCC3)cc2)cc(OC)c1OC,2.89
2,O=C(c1ccccc1Cl)N(Cc1ccc(Cl)c(Cl)c1)N1C(=O)CCCC1=O,13.1
3,CSCCOC(=O)COc1ccc(/C=N/NC(=O)c2nn(C)cc2Cl)cc1,-3.09
4,CCCNC(=O)c1ccc(N2CCC3(CC2)CC(c2ccccc2)=NO3)c(N)c1,2.92
5,N#Cc1cccc(NC(=O)c2ccc(S(=O)(=O)N3CCOCC3)cc2)c1,0.709
6,CCC(C)NC(=O)CCC(=O)Nc1ccc2nc(N3CCOCC3)cc(C)c2c1 (centres unmarked),5.35
7,CCc1noc(C)c1C(=O)OCC(=O)c1ccc(OC)c(OC)c1,-2.05
8,CCOC(=O)COC(=O)c1ccc(O)cc1,1.8
9,COc1cccc(NC(=O)c2ccc3nc(C)sc3c2)c1,16.3
10,CC1CSc2n(-c3cccc(C(F)(F)F)c3)cc(-c3ccccc3)[n+]21.[Br-] (centres unmarked),-1.57
11,COc1ccc(N(C(=O)CNC(=O)c2ccco2)C(C(=O)NC2CCCC2)c2cccnc2)cc1 (centres unmarked),13.4
12,CCCN(CC(=O)Nc1ccccc1OC)C(C)C(=O)NC(C)CCc1ccccc1 (centres unmarked),9.31
13,CCOC(=O)CNC(=O)C1CCCN(c2ncccn2)C1 (centres unmarked),14.6
14,C=CCOc1ccc(CNC(C)(C)CO)cc1OCC.Cl,7.42
15,Cc1ccc(NC(=S)c2nc3ccccc3[nH]2)c(C)c1,14.6
16,Cc1ccc(N=C2NC(=O)/C(=C/C=C/c3ccco3)S2)cc1,20.8
17,COC(=O)COc1ccc(S(=O)(=O)N2CCN(c3ccccc3F)CC2)cc1,7.4
18,CCC1CC(C)(C(=O)Nc2ccc(S(N)(=O)=O)cc2)OC1=O (centres unmarked),5.22
19,Cc1cc(C)n2ncc(S(=O)(=O)c3ccccc3)c2n1,11.8
20,N#Cc1ccccc1OCC(=O)OCC(=O)NCc1ccc2c(c1)OCO2,6.99
21,O=C(NCc1ccccc1)c1cccc(OCC(=O)N2CCN(C(=O)c3ccco3)CC2)c1,-2.57
22,Cc1ccc(/C(O)=C/c2nc3cc(C)ccc3oc2=O)cc1,14.2
23,Clc1ccc(Nc2ncn[nH]2)cc1,16.2

row,SMILES,"hERG current change (%, negative = inhibition) at 1uM [%]"
1,CC12CCCCC1(O)[N+](=O)C1=C(CCCC1)N2[O-] (centres unmarked),15.1
2,Cc1ccc(N(Cc2cc3ccccc3[nH]c2=O)C(=O)c2cccs2)cc1,-0.954
3,Cc1n[nH]c(C)c1C(=O)CC1(O)C(=O)N(CCc2ccccc2)c2ccc(Cl)cc21 (centres unmarked),-1.42
4,Cc1ccc(S(=O)(=O)C2CS(=O)(=O)CC2O)cc1 (centres unmarked),18.4
5,CCOC(=O)N1CCN(C(=O)COC(=O)c2ccccc2NCCO)CC1,9.6
6,O=C(O)CCC(=O)NNC(=O)c1cccs1,15.5
7,CCOc1ccc(N(C)C(=O)CCc2nnc3ccc(N4CCCC4)nn23)cc1,11
8,C=C(C)C1Cc2cc3ccc(=O)oc3cc2O1 (centres unmarked),-0.867
9,Cl.OCCNc1nc2ccccc2n1CCN1CCCCC1,-10.1
10,COCc1cc(C2SCC(=O)Nc3c2c(=O)[nH]n3C(C)C)ccc1OC (centres unmarked),-0.346
11,Clc1nccc(NCc2ccccc2)n1,13.6
12,COc1ccc(N2CCN(C(=O)CN(Cc3ccc(Cl)cc3)S(C)(=O)=O)CC2)cc1,9.57
13,CCOC(=O)c1ccc(NC(=O)CSc2nnc(COc3ccccc3OC)n2C)cc1,3.73
14,Cc1ccccc1NC(NC(=O)c1cccs1)C(Cl)(Cl)Cl (centres unmarked),16.1
15,CC1(C)Cc2c(cnn2-c2cccc(F)c2)C(NC(=O)CSc2ccccn2)C1 (centres unmarked),6.26
16,COc1ccc(-c2[nH]n(-c3ccc([N+](=O)[O-])cc3)c(=O)c2C=NCc2ccccc2)cc1,7.32
17,CN(Cc1ccccc1)C(=O)C1CCN(S(=O)(=O)c2cc([N+](=O)[O-])ccc2Cl)CC1,-5.15
18,COCCCNC(=O)c1sc2ncn(CC(=O)Nc3ccc(C)c(Cl)c3)c(=O)c2c1C,7.46
19,CCOC(=O)C1=C(C)N=c2s/c(=C/c3ccccc3)c(=O)n2C1c1ccc(OC)c(OC)c1 (centres unmarked),11.4
20,O=C(CCS(=O)(=O)c1ccccc1)Nc1ccc(S(=O)(=O)Nc2ncccn2)cc1,16.7
